Results from the supplement of paper PMC4967469.
By IC50 is meant the dose at which the fit gives 50% viability; where the fit passes the top or lowest dose, that dose stands as a limit. AUC is the area under the same curve over the 256-fold range up to the top dose, as a fraction: 1 means no effect, lower means more sensitive. For part of these data: Where the top dose is marked as inferred, it is not printed in the source and was worked back from the curve model.

Assays:
Assay in all cases: Viability of human cancer cell lines after 72 h of drug (GDSC screen)
CX-5461 = compound: Cc1cnc(CNC(=O)c2c(=O)c3ccc(N4CCCN(C)CC4)nc3n3c2sc2ccccc23)cn1 [CX-5461]; details: top dose 10.24 µM; top dose inferred
Procedure: (§1)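 Human cancer cell lines in 384-well plates, medium with 10% serum, drug for 72 h over a 256-fold dose range (nine 2-fold or five 4-fold steps up to the top dose). Adherent lines were fixed and stained with the nucleic acid dye Syto60, suspension lines read with resazurin; signal relative to control wells, capped at 0 and 100%. One two-parameter sigmoid per drug and line, fitted in a mixed model over all curves with the slope shared within a line.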

CP724714 = compound: COCC(=O)NC/C=C/c1ccc2ncnc(Nc3ccc(Oc4ccc(C)nc4)c(C)c3)c2c1 [CP724714]; details: top dose 10.24 µM; top dose inferred
Procedure: as §1

STF-62247 = compound: Cc1cccc(Nc2nc(-c3ccncc3)cs2)c1 [STF-62247]; details: top dose 10.24 µM; top dose inferred
Procedure: as §1

Obatoclax mesylate = compound: COC1=CC(c2cc3ccccc3[nH]2)=N/C1=C\c1[nH]c(C)cc1C [Obatoclax mesylate]; details: top dose 16 µM
Procedure: as §1

Bortezomib = compound: CC(C)C[C@H](NC(=O)[C@H](Cc1ccccc1)NC(=O)c1cnccn1)B(O)O [Bortezomib]; details: top dose 0.02 µM
Procedure: as §1

Paclitaxel = compound: CC(=O)O[C@H]1C(=O)[C@@]2(C)[C@H]([C@H](OC(=O)c3ccccc3)[C@]3(O)C[C@H](OC(=O)[C@H](O)[C@@H](NC(=O)c4ccccc4)c4ccccc4)C(C)=C1C3(C)C)[C@]1(OC(C)=O)CO[C@@H]1C[C@@H]2O [Paclitaxel]; details: top dose 0.1024 µM
Procedure: as §1

| Cell Line | AUC (CX-5461) | IC50 (CX-5461) | AUC (CP724714) | IC50 (CP724714) | AUC (STF-62247) | IC50 (STF-62247) | AUC (Obatoclax mesylate) | IC50 (Obatoclax mesylate) | AUC (Bortezomib) | IC50 (Bortezomib) | AUC (Paclitaxel) | IC50 (Paclitaxel) |
| --- | --- | --- | --- | --- | --- | --- | --- | --- | --- | --- | --- | --- |
| TK10 (kidney, adherent) | 0.98 | > 10200 nM | 0.949 | > 10200 nM | 0.978 | > 10200 nM | 0.294 | 230 nM | 0.378 | 0.536 nM | 0.709 | 28.6 nM |
| U-698-M (B-cell leukaemia, suspension) | 0.762 | 3670 nM | 0.972 | > 10200 nM | 0.947 | > 10200 nM | 0.176 | 105 nM | 0.735 | 5.86 nM | 0.952 | > 102 nM |
| UACC-257 (melanoma, adherent) | 0.932 | > 10200 nM | 0.97 | > 10200 nM | 0.982 | > 10200 nM | 0.422 | 582 nM | 0.436 | 0.801 nM | 0.748 | 40.3 nM |
| VA-ES-BJ (soft tissue, adherent) | 0.979 | > 10200 nM | 0.984 | > 10200 nM | 0.981 | > 10200 nM | 0.44 | 678 nM | 0.454 | 0.928 nM | 0.382 | 2.97 nM |
| VCaP (prostate, adherent) | 0.921 | > 10200 nM | 0.979 | > 10200 nM | 0.987 | > 10200 nM | 0.271 | 216 nM | 0.638 | 3.06 nM | 0.654 | 17.4 nM |
| WIL2-NS (lymphoid neoplasm, suspension) | 0.344 | 259 nM | 0.925 | > 10200 nM | 0.93 | > 10200 nM | 0.063 | < 62.5 nM | 0.5 | 1.25 nM | 0.462 | 5.16 nM |
| YT (lymphoid neoplasm, suspension) | 0.647 | 1520 nM | 0.976 | > 10200 nM | 0.876 | 7600 nM | 0.128 | 87.3 nM | 0.93 | > 20 nM | 0.992 | > 102 nM |
| no-10 (glioma, adherent) | 0.93 | > 10200 nM | 0.976 | > 10200 nM | 0.983 | > 10200 nM | 0.54 | 1320 nM | 0.255 | 0.208 nM | 0.444 | 4.33 nM |
| no-11 (glioma, adherent) | 0.911 | > 10200 nM | 0.98 | > 10200 nM | 0.982 | > 10200 nM | 0.58 | 1750 nM | 0.535 | 1.6 nM | 0.709 | 29.4 nM |
